{"source": "the GPR68 mutational scans of Howard et al. (2025)", "parents": {"B1": {"name": "GPR68, Q15743 (parent)", "chain": "MGNITADNSSMSCTIDHTIHQTLAPVVYVTVLVVGFPANCLSLYFGYLQIKARNELGVYLCNLTVADLFYICSLPFWLQYVLQHDNWSHGDLSCQVCGILLYENIYISVGFLCCISVDRYLAVAHPFRFHQFRTLKAAVGVSVVIWAKELLTSIYFLMHEEVIEDENQHRVCFEHYPIQAWQRAINYYRFLVGFLFPICLLLASYQGILRAVRRSHGTQKSRKDQIQRLVLSTVVIFLACFLPYHVLLLVRSVWEASCDFAKGVFNAYHFSLLLTSFNCVADPVLYCFVSETTHRDLARLRGACLAFLTCSRTGRAREAYPLGAPEASGKSGAQGEEPELLTKLHPAFQTPNSPGSGGFPTGRLA"}}, "key": {"[1]": {"variants_of": "B1", "test": "cAMP reporter score (Enrich2 score, wild type = 0); higher = more signal; HEK293T, FACS bins"}, "[2]": {"variants_of": "B1", "test": "surface expression score (Enrich2 score, wild type = 0); higher = more signal; HEK293T, FACS bins"}}, "note": "The least precise scores are not listed. Two further conditions of the source, in which the scores hardly spread, are not listed. Names with del lack the residues named; names with ins carry added residues between the positions named. For part of these data: The data file names ogerin without a concentration."}
{"variant": "P177_I178del", "values": [{"measurement": "cAMP reporter score", "setting": "[1]; pH 5.5", "result": -1.93}, {"measurement": "cAMP reporter score", "setting": "[1]; pH 6", "result": -0.923}, {"measurement": "cAMP reporter score", "setting": "[1]; pH 6, modulator: ogerin", "result": -0.884}, {"measurement": "cAMP reporter score", "setting": "[1]; pH 6.5, modulator: ogerin", "result": -0.774}, {"measurement": "surface expression score", "setting": "[2]", "result": -2.02}]}
{"variant": "P177_I178insG", "values": [{"measurement": "cAMP reporter score", "setting": "[1]; pH 5.5", "result": -1.14}, {"measurement": "cAMP reporter score", "setting": "[1]; pH 6", "result": -0.023}, {"measurement": "cAMP reporter score", "setting": "[1]; pH 6, modulator: ogerin", "result": -1.64}, {"measurement": "cAMP reporter score", "setting": "[1]; pH 6.5, modulator: ogerin", "result": -0.687}, {"measurement": "surface expression score", "setting": "[2]", "result": -0.378}]}
{"variant": "P177_I178insGS", "values": [{"measurement": "cAMP reporter score", "setting": "[1]; pH 5.5", "result": -2.17}, {"measurement": "cAMP reporter score", "setting": "[1]; pH 6", "result": -0.498}, {"measurement": "cAMP reporter score", "setting": "[1]; pH 6, modulator: ogerin", "result": -1.56}, {"measurement": "cAMP reporter score", "setting": "[1]; pH 6.5, modulator: ogerin", "result": -1.57}, {"measurement": "surface expression score", "setting": "[2]", "result": -1.52}]}
{"variant": "P177_I178insGSG", "values": [{"measurement": "cAMP reporter score", "setting": "[1]; pH 5.5", "result": -2.4}, {"measurement": "cAMP reporter score", "setting": "[1]; pH 6", "result": -1.16}, {"measurement": "cAMP reporter score", "setting": "[1]; pH 6, modulator: ogerin", "result": -2.69}, {"measurement": "cAMP reporter score", "setting": "[1]; pH 6.5, modulator: ogerin", "result": -0.878}, {"measurement": "surface expression score", "setting": "[2]", "result": -1.69}]}
{"variant": "P177del", "values": [{"measurement": "cAMP reporter score", "setting": "[1]; pH 5.5", "result": -0.66}, {"measurement": "cAMP reporter score", "setting": "[1]; pH 6", "result": -1.66}, {"measurement": "cAMP reporter score", "setting": "[1]; pH 6, modulator: ogerin", "result": -1.8}, {"measurement": "cAMP reporter score", "setting": "[1]; pH 6.5, modulator: ogerin", "result": -1.67}, {"measurement": "surface expression score", "setting": "[2]", "result": -2.28}]}
{"variant": "MGNITADNSSMSCTIDHTIHQTLAPVVYVTVLVVGFPANCLSLYFGYLQIKARNELGVYLCNLTVADLFYICSLPFWLQYVLQHDNWSHGDLSCQVCGILLYENIYISVGFLCCISVDRYLAVAHPFRFHQFRTLKAAVGVSVVIWAKELLTSIYFLMHEEVIEDENQHRVCFEHYPAQAWQRAINYYRFLVGFLFPICLLLASYQGILRAVRRSHGTQKSRKDQIQRLVLSTVVIFLACFLPYHVLLLVRSVWEASCDFAKGVFNAYHFSLLLTSFNCVADPVLYCFVSETTHRDLARLRGACLAFLTCSRTGRAREAYPLGAPEASGKSGAQGEEPELLTKLHPAFQTPNSPGSGGFPTGRLA", "note": "[I178A]", "values": [{"measurement": "cAMP reporter score", "setting": "[1]; pH 5.5", "result": -0.571}, {"measurement": "cAMP reporter score", "setting": "[1]; pH 6", "result": 1.27}, {"measurement": "cAMP reporter score", "setting": "[1]; pH 6, modulator: ogerin", "result": -0.478}, {"measurement": "cAMP reporter score", "setting": "[1]; pH 6.5, modulator: ogerin", "result": -0.933}, {"measurement": "surface expression score", "setting": "[2]", "result": -0.491}]}
{"variant": "MGNITADNSSMSCTIDHTIHQTLAPVVYVTVLVVGFPANCLSLYFGYLQIKARNELGVYLCNLTVADLFYICSLPFWLQYVLQHDNWSHGDLSCQVCGILLYENIYISVGFLCCISVDRYLAVAHPFRFHQFRTLKAAVGVSVVIWAKELLTSIYFLMHEEVIEDENQHRVCFEHYPCQAWQRAINYYRFLVGFLFPICLLLASYQGILRAVRRSHGTQKSRKDQIQRLVLSTVVIFLACFLPYHVLLLVRSVWEASCDFAKGVFNAYHFSLLLTSFNCVADPVLYCFVSETTHRDLARLRGACLAFLTCSRTGRAREAYPLGAPEASGKSGAQGEEPELLTKLHPAFQTPNSPGSGGFPTGRLA", "note": "[I178C]", "values": [{"measurement": "cAMP reporter score", "setting": "[1]; pH 5.5", "result": -0.793}, {"measurement": "cAMP reporter score", "setting": "[1]; pH 6", "result": -0.411}, {"measurement": "cAMP reporter score", "setting": "[1]; pH 6, modulator: ogerin", "result": -1}, {"measurement": "cAMP reporter score", "setting": "[1]; pH 6.5, modulator: ogerin", "result": -0.291}, {"measurement": "surface expression score", "setting": "[2]", "result": -1.51}]}
{"variant": "MGNITADNSSMSCTIDHTIHQTLAPVVYVTVLVVGFPANCLSLYFGYLQIKARNELGVYLCNLTVADLFYICSLPFWLQYVLQHDNWSHGDLSCQVCGILLYENIYISVGFLCCISVDRYLAVAHPFRFHQFRTLKAAVGVSVVIWAKELLTSIYFLMHEEVIEDENQHRVCFEHYPDQAWQRAINYYRFLVGFLFPICLLLASYQGILRAVRRSHGTQKSRKDQIQRLVLSTVVIFLACFLPYHVLLLVRSVWEASCDFAKGVFNAYHFSLLLTSFNCVADPVLYCFVSETTHRDLARLRGACLAFLTCSRTGRAREAYPLGAPEASGKSGAQGEEPELLTKLHPAFQTPNSPGSGGFPTGRLA", "note": "[I178D]", "values": [{"measurement": "cAMP reporter score", "setting": "[1]; pH 5.5", "result": -0.267}, {"measurement": "cAMP reporter score", "setting": "[1]; pH 6", "result": 0.082}, {"measurement": "cAMP reporter score", "setting": "[1]; pH 6, modulator: ogerin", "result": -1.09}, {"measurement": "cAMP reporter score", "setting": "[1]; pH 6.5, modulator: ogerin", "result": -0.859}, {"measurement": "surface expression score", "setting": "[2]", "result": -1.09}]}
{"variant": "MGNITADNSSMSCTIDHTIHQTLAPVVYVTVLVVGFPANCLSLYFGYLQIKARNELGVYLCNLTVADLFYICSLPFWLQYVLQHDNWSHGDLSCQVCGILLYENIYISVGFLCCISVDRYLAVAHPFRFHQFRTLKAAVGVSVVIWAKELLTSIYFLMHEEVIEDENQHRVCFEHYPFQAWQRAINYYRFLVGFLFPICLLLASYQGILRAVRRSHGTQKSRKDQIQRLVLSTVVIFLACFLPYHVLLLVRSVWEASCDFAKGVFNAYHFSLLLTSFNCVADPVLYCFVSETTHRDLARLRGACLAFLTCSRTGRAREAYPLGAPEASGKSGAQGEEPELLTKLHPAFQTPNSPGSGGFPTGRLA", "note": "[I178F]", "values": [{"measurement": "cAMP reporter score", "setting": "[1]; pH 5.5", "result": -1.1}, {"measurement": "cAMP reporter score", "setting": "[1]; pH 6", "result": -0.3}, {"measurement": "cAMP reporter score", "setting": "[1]; pH 6, modulator: ogerin", "result": -1.14}, {"measurement": "cAMP reporter score", "setting": "[1]; pH 6.5, modulator: ogerin", "result": -0.824}, {"measurement": "surface expression score", "setting": "[2]", "result": -0.176}]}
